Data taken from the supplement of paper PMC7826260.
This is one part of the list. Viral Rep nickase domains cut single-stranded DNA in vitro for 1 h at 37 °C with 3 µM enzyme; only the middle of the 90-letter strands is printed. The score is log2 (uncut reads / reads without enzyme); the lower, the more was cut; hits are not called. Counts are relative to all reads; where an enzyme cuts many sequences, the uncut ones exceed 0.

What follows are sequences tested on T1, Rep nickase domain of chickpea chlorotic dwarf virus (assay: uncleaved DNA left, log2 of reads against the no-enzyme library (log2 ratio); higher = less cleavage (more negative = more Rep cleavage of the k-mer); sequences stand for … in CTCGTCCG…ACCGGAGA).
T1 sequence (residues 1-124, tag not shown): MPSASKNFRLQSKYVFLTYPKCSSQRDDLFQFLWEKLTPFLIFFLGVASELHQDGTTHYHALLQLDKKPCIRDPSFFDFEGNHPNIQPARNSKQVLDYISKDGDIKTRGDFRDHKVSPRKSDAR
Method: (§1)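 A pool of 90-nt single-stranded DNAs with seven random bases just before the constant AC of the nick site (name = the seven bases) was cut by 3 µM recombinant His6-SUMO-tagged Rep nickase domain (300 nM DNA, 50 mM HEPES pH 8.0, 50 mM NaCl, 1 mM MnCl2, 1 h, 37 °C, three replicates). Uncut DNA was amplified and sequenced.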

Sequence | uncleaved DNA left (log2)
GGATCCC | 1.2
ATTCCCT | -2.17
TGGATTC | 0.849
TAAAGGT | -2.19
AATTGGA | -0.378
TACGGTC | 0.00554
GTCTACC | 0.333
TCCTACT | -2.89
TCGCACC | -0.327
TAACAGC | -1.65
CACCTAT | -2.1
AAAGCCT | -2.36
CGTCGTG | -0.271
AGTGCAC | 0.299
CAAGAAC | -0.0886
CGCCAGC | 0.524
CCGCTGC | -0.124
CAGGTAT | 1.44
CGTCAGT | -0.284
ACTCGAC | 0.0791

Sequence | uncleaved DNA left (log2)
AACGTAC | -0.238
ACAACGG | -0.288
ACGAAAC | -0.0834
TGCCTTA | -0.637
GTAATGG | 0.838
GCTAACG | -0.413
AGGTGTG | -0.493
ACCCTCC | 0.365
AGGCGGC | 0.0316
GATTTGT | 0.0385
CTGATAA | -0.131
CCCCCAA | -0.624
GGTATGG | 0.909
CTTACGC | -0.914
ACGCTTT | -2.33
ATCGCCT | -1.52
CCTGCGG | 1.36
CAGCAGT | -0.788
CTTCGGC | -0.0184
CTTTCTC | -0.318

Each sequence was assayed on T2, Rep nickase domain of faba bean necrotic yellows virus in the same assay as above.
T2 sequence (residues 1-98, tag not shown): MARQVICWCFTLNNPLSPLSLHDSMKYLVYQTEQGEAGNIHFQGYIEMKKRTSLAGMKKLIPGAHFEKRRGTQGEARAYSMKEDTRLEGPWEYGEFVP
Method: as §1

Sequence | uncleaved DNA left (log2)
GGATCCC | 0.148
ATTCCCT | -0.121
TGGATTC | -0.125
TAAAGGT | 0.073
AATTGGA | 0.0753
TACGGTC | -0.0719
GTCTACC | -0.106
TCCTACT | 0.0635
TCGCACC | -0.114
TAACAGC | 0.00514
CACCTAT | 0.152
AAAGCCT | 0.0116
CGTCGTG | 0.0792
AGTGCAC | -0.00839
CAAGAAC | 0.0336
CGCCAGC | -0.0108
CCGCTGC | -0.17
CAGGTAT | 0.211
CGTCAGT | -0.0055
ACTCGAC | 0.0458

Sequence | uncleaved DNA left (log2)
AACGTAC | 0.17
ACAACGG | 0.104
ACGAAAC | 0.00535
TGCCTTA | 0.0369
GTAATGG | -0.0926
GCTAACG | -0.0978
AGGTGTG | -0.0303
ACCCTCC | 0.0476
AGGCGGC | -0.00566
GATTTGT | 0.145
CTGATAA | -0.0726
CCCCCAA | -0.148
GGTATGG | 0.000446
CTTACGC | 0.0479
ACGCTTT | 0.177
ATCGCCT | -0.154
CCTGCGG | -0.0408
CAGCAGT | 0.0675
CTTCGGC | 0.0521
CTTTCTC | 0.00131

The sequences below were run on T3, Rep nickase domain of maize striate mosaic virus in the same assay as above.
T3 sequence (residues 1-117, tag not shown): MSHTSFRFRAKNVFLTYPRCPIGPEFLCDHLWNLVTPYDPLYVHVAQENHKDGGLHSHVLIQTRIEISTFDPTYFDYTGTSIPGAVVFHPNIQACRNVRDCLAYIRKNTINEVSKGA
Method: as §1

Sequence | uncleaved DNA left (log2)
GGATCCC | 1.56
ATTCCCT | -0.629
TGGATTC | 0.869
TAAAGGT | 1.31
AATTGGA | -0.982
TACGGTC | 0.202
GTCTACC | 1.5
TCCTACT | -0.593
TCGCACC | -0.553
TAACAGC | -1.24
CACCTAT | -0.658
AAAGCCT | -0.201
CGTCGTG | -0.36
AGTGCAC | -0.144
CAAGAAC | -0.713
CGCCAGC | 0.419
CCGCTGC | -0.37
CAGGTAT | 1.84
CGTCAGT | -0.413
ACTCGAC | -0.396
